Drawing on the antibiotic and cytotoxicity screens of Wong et al. (2023), this text covers cytotoxicity call and growth inhibition call for 25 molecules.

Structures are written as SMILES. Some of the results follow.

One test concerns HSkMC. The experiment in a line: cytotoxicity call (relative viability < 0.9). As to conditions: 10 µM.
A further test deals with HepG2. The experiment in a line: cytotoxicity call (relative viability < 0.9). As to conditions: 10 µM.
The test system of a further test is S. aureus RN4220. The experiment in a line: growth inhibition call (relative growth <= 0.2). As to conditions: 50 µM.

For the molecule `CO[C@H](CN(C)C(=O)c1ccc2c(c1)OCO2)[C@H](C)CN([C@H](C)CO)S(=O)(=O)c1ccc(F)cc1`, the cytotoxicity call in the test with HSkMC and in the test with HepG2 was “inactive” throughout. For the same molecule, the growth inhibition call in the test with S. aureus RN4220 is “inactive”.
As to `COCCCNc1ncnc(N)c1[N+](=O)[O-]`, the cytotoxicity call in the test with HSkMC and in the test with HepG2 was “inactive” each time. Further, the growth inhibition call in the test on S. aureus RN4220 was “inactive”.
As to `COc1cccc(NC(=O)N(C)C[C@@H]2Oc3ncc(C#Cc4cccnc4)cc3C(=O)N([C@@H](C)CO)C[C@H]2C)c1`, the cytotoxicity call in the test with HSkMC and with HepG2 was “inactive” in each case. The growth inhibition call in the test with S. aureus RN4220 was “inactive”.
As to `COc1ccc(NC(=O)N(C)C[C@@H]2OCCCC[C@H](C)Oc3ccc(NS(=O)(=O)c4cccs4)cc3C(=O)N([C@@H](C)CO)C[C@@H]2C)cc1`, the cytotoxicity call in the test with HSkMC and in the test with HepG2 was “inactive” throughout. In the test on S. aureus RN4220, the growth inhibition call was “inactive”.
As to `NC[C@H]1O[C@H](O[C@H]2[C@H](O)[C@@H](O[C@H]3O[C@H](CO)[C@@H](O)[C@H](N)[C@H]3O)[C@H](N)C[C@@H]2N)[C@H](N)C[C@@H]1O`, the cytotoxicity call in the test on HSkMC and with HepG2 was “inactive” each time. Further, the growth inhibition call with S. aureus RN4220 is “active”.
`C[C@@H]1CN([C@@H](C)CO)C(=O)c2cc(NS(=O)(=O)c3cccs3)ccc2O[C@@H](C)CCCCO[C@@H]1CN(C)C(=O)CCC(F)(F)F`: the cytotoxicity call in the test on HSkMC and in the test on HepG2 was “inactive” each time. For the same molecule, the growth inhibition call in the test on S. aureus RN4220 is “inactive”.
`C[C@H](CO)N1C[C@H](C)[C@H](CN(C)S(=O)(=O)c2ccc(F)cc2)Oc2cc(C#Cc3ccc(F)cc3)ccc2S1(=O)=O`: the cytotoxicity call in the test on HSkMC and in the test on HepG2 was “inactive” each time. Further, in the test with S. aureus RN4220, the growth inhibition call is “inactive”.
`COc1ccc(S(=O)(=O)Nc2ccc3c(c2)CC(=O)N([C@@H](C)CO)C[C@H](C)[C@H](CN(C)Cc2ccc(-c4ccccc4)cc2)O3)cc1`: the cytotoxicity call in the test on HSkMC and with HepG2 was “active” in each case. For the same molecule, in the test with S. aureus RN4220, the growth inhibition call was “inactive”.
As for `CN(C)C(=O)C[C@H]1C=C[C@@H](NC(=O)C2CC2)[C@H](CO)O1`, the cytotoxicity call in the test with HSkMC and in the test on HepG2 was “inactive” in each case. Also, in the test on S. aureus RN4220, the growth inhibition call is “inactive”.
`C[C@H]1CN([C@@H](C)CO)C(=O)c2cccc(NC(=O)c3ccc(-c4nccs4)cc3)c2O[C@H]1CN(C)C(=O)Nc1ccccc1`: the cytotoxicity call with HSkMC and in the test with HepG2 was “inactive” in each case. The growth inhibition call with S. aureus RN4220 is “inactive”.
Consider `C[C@H]1CN([C@@H](C)CO)C(=O)c2cc(NC(=O)Nc3cccc4ccccc34)ccc2O[C@@H]1CN(C)C(=O)NC1CCCCC1`, for which the cytotoxicity call in the test with HSkMC and in the test with HepG2 was “inactive” throughout. The growth inhibition call in the test on S. aureus RN4220 was “inactive”.
Take `CC1(C)[C@@H](OC(=O)CCC(=O)O)CC[C@]2(C)[C@H]3C(=O)C=C4[C@@H]5C[C@@](C)(C(=O)O)CC[C@]5(C)CC[C@@]4(C)[C@]3(C)CC[C@@H]12`: the cytotoxicity call in the test on HSkMC and with HepG2 was “inactive” throughout. For the same molecule, the growth inhibition call with S. aureus RN4220 was “inactive”.
With `COC(=O)C[C@H]1CC[C@@H]2[C@H](COC[C@@H](O)CN2S(=O)(=O)c2ccccc2C)O1`, the cytotoxicity call in the test on HSkMC and in the test with HepG2 was “inactive” each time. Besides, in the test on S. aureus RN4220, the growth inhibition call is “inactive”.
For `C[C@H](CO)N1C[C@H](C)[C@@H](CN(C)C(=O)Nc2ccc(C(F)(F)F)cc2)Oc2ccc(NC(=O)Nc3ccc(F)cc3)cc2C1=O`, in the test on HSkMC, the cytotoxicity call is “inactive”. In the test with HepG2, the cytotoxicity call is “active”. The growth inhibition call in the test with S. aureus RN4220 was “inactive”.
For the molecule `C[C@@H]1CNC(=O)CO1`, the cytotoxicity call in the test on HSkMC and with HepG2 was “inactive” throughout. The growth inhibition call with S. aureus RN4220 was “inactive”.
On to `COc1ccc(S(=O)(=O)N(C)C[C@H]2Oc3c(NS(=O)(=O)c4cn(C)cn4)cccc3C(=O)N([C@@H](C)CO)C[C@@H]2C)cc1`, for which the cytotoxicity call in the test with HSkMC and in the test on HepG2 was “inactive” in each case. Moreover, the growth inhibition call with S. aureus RN4220 is “inactive”.
As for `C[C@@H]1CN([C@H](C)CO)C(=O)c2cc(NC(=O)CCN3CCOCC3)ccc2O[C@@H]1CN(C)Cc1ccc2c(c1)OCO2`, the cytotoxicity call in the test on HSkMC and with HepG2 was “inactive” each time. Also, the growth inhibition call with S. aureus RN4220 is “inactive”.
Turning to `O=C(C[C@@H]1CC[C@@H]2[C@H](COC[C@H](O)CN2CC2CCOCC2)O1)N1CCOCC1`, the cytotoxicity call in the test on HSkMC and in the test with HepG2 was “inactive” each time. In addition, the growth inhibition call in the test on S. aureus RN4220 is “inactive”.
`C#Cc1ccc([C@H]2C=C(C(=O)N3CCN(Cc4ccc5c(c4)OCO5)CC3)O[C@@H](OCC)[C@@H]2CCCO)cc1`: the cytotoxicity call in the test on HSkMC and in the test with HepG2 was “inactive” each time. Also, in the test on S. aureus RN4220, the growth inhibition call is “inactive”.
Consider `CN1CCN(C(=O)C[C@@H]2CC[C@@H]3[C@H](COc4ccc(NC(=O)C5CCOCC5)cc4C(=O)N3C)O2)CC1`, for which the cytotoxicity call in the test with HSkMC and with HepG2 was “inactive” in each case. In the test on S. aureus RN4220, the growth inhibition call was “inactive”.
On to `Cc1noc(C)c1S(=O)(=O)Nc1ccc2c(c1)C(=O)N([C@H](C)CO)C[C@@H](C)[C@H](CN(C)C(=O)NC1CCCCC1)O2`, for which the cytotoxicity call in the test on HSkMC and in the test on HepG2 was “inactive” in each case. For the same molecule, the growth inhibition call in the test with S. aureus RN4220 was “inactive”.
On to `COc1ccc(NC(=O)N(C)C[C@H]2Oc3ncc(C#C[C@@H](C)O)cc3C(=O)N([C@@H](C)CO)C[C@H]2C)cc1`, for which the cytotoxicity call with HSkMC and with HepG2 was “inactive” in each case. The growth inhibition call in the test with S. aureus RN4220 was “inactive”.
Consider `Cc1noc(C)c1NC(=O)Nc1ccc2c(c1)C(=O)N([C@@H](C)CO)C[C@@H](C)[C@H](CN(C)S(=O)(=O)c1ccccc1)O2`, for which the cytotoxicity call in the test on HSkMC (human skeletal muscle cells) and in the test on HepG2 was “inactive” in each case. The growth inhibition call in the test on S. aureus RN4220 was “inactive”.
Turning to `C[C@@H]1CCCCO[C@@H](CN(C)Cc2ccc(C(=O)O)cc2)[C@@H](C)CN([C@H](C)CO)C(=O)c2cc(NC(=O)Nc3ccc(C(F)(F)F)cc3)ccc2O1`, the cytotoxicity call with HSkMC and in the test with HepG2 was “inactive” each time. The growth inhibition call with S. aureus RN4220 was “inactive”.
Take `COc1ccc(S(=O)(=O)N(C)C[C@H]2Oc3ccc(NS(C)(=O)=O)cc3CC(=O)N([C@H](C)CO)C[C@H]2C)cc1`: the cytotoxicity call with HSkMC and with HepG2 was “inactive” throughout. The growth inhibition call in the test with S. aureus RN4220 was “inactive”.
